Values quoted from earlier work in patent US11045554B1 (National Technology & Engineering Solutions of Sandia, LLC, priority 2018, dated 2021).

Conditions: mouse plasma, after 3 hours; cited from earlier work

CN1CCN(C)C(=Nc2ccc([N+](=O)[O-])cc2C(=O)Nc2ccccc2)C1 [ML336, 2-[(1,4-dimethylpiperazin-2-ylidene)amino]-5-nitro-N-phenylbenzamide]
reduction of drug: 35%
